PubChem BioAssay AID1346428 (National Center for Advancing Translational Sciences (NCATS), 2018)
Several values for one entry are separate records, joined by “and”; a condition that tells them apart may be missing. Equal entries are not always repeated. Out of some 48,000 compounds screened, about 1,200 (2.5%) were called active. About 2% were inconclusive and are not listed.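 How the source made its calls: active means activation of at least 60% and not above a set upper limit (about 1 call in 100 departs from these limits); inconclusive means activation of 40% to 60%, or above that upper limit; inactive means activation under 40%.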 The list shows a part of the results.

The compounds below were run against Probable G-protein coupled receptor 32 (Homo sapiens) (UniProt O75388) (assay: qHTS for Agonists of Human Resolvin D1 Receptor DRV1). Conditions: CHO-K1 GPR32 beta-arrestin PathHunter luminescence, 90 min; at 76.9 µM; active compounds read high; zero percent set by DMSO-only wells.
Outline: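 Agonism was scored as beta-arrestin recruitment to ProLink-fused GPR32 in stably transfected CHO-K1 cells, giving a chemiluminescent beta-Gal signal; compounds were incubated 90 min at 37 °C.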
Further: 0% is about no effect.

Sequence of UniProt O75388 (O75388 whole entry, looked up, the tested form may be a part): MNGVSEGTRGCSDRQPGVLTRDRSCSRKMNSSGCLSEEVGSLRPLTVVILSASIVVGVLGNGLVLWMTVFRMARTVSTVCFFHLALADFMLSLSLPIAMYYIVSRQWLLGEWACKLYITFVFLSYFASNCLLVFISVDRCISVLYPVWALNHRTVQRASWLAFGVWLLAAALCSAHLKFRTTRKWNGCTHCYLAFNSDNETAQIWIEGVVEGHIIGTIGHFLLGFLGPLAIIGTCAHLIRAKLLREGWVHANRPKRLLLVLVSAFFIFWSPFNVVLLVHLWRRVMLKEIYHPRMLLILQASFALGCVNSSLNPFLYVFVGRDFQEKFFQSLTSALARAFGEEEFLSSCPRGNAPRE

Row | Compound | activation
1 | O=C(CSc1nc2ccsc2c(=O)n1-c1ccc(Br)cc1)NCc1ccccc1 | inactive: -36.5%
2 | CCOC(=O)c1ccc(NC(=O)c2ccc(CN3C(=O)CCn4nc(C)cc43)cc2)cc1 | inactive: -4.09%
3 | CCCCN(CC)C(=O)C1CCCN(c2ncnc3c2nc2n3CCCCC2)C1 (stereo not drawn) | inactive: 21.6%
4 | CCOc1ccc(CNC(=O)CCn2c(=O)c3cccn3c3ccc(F)cc32)cc1 | inactive: -21%
5 | Cc1ccccc1C(=O)N1CCC(N2CCN(Cc3ccc(F)cc3)C(=O)C2=O)CC1 | inactive: -7.72%
6 | O=C(CSc1nnc2scc(-c3ccccc3)n12)Nc1ccc(Cl)cc1 | inactive: -23.7%
7 | CCOC(=O)c1c(C)[nH]c(C)c1S(=O)(=O)N(C)CC(=O)NCc1cccc(Br)c1 | active: 101%
8 | COc1ccc(NC(=O)NCCn2nnc3cc(S(=O)(=O)N(C)C)ccc32)cc1 | inactive: 8.23%
9 | CC1CCN(c2ccc(-c3nc(-c4ccccc4)no3)cc2[N+](=O)[O-])CC1 | inactive: 5.75%
10 | CCc1cccc(C)c1NC(=O)CCCN1C(=O)C(c2ccccc2)Oc2cccnc21 (stereo not drawn) | inactive: 5.79%
11 | O=C(Cn1c(=O)c2ccccc2n2nncc12)Nc1cccc(F)c1 | inactive: 2.23%
12 | O=C(NCc1nc2ccccc2[nH]1)c1cccc(Cl)c1 | inactive: 4.48%
13 | Cc1cc(N2CCCCC2)nc2ccc(NC(=O)/C=C/c3ccc(OCCC(C)C)cc3)cc12 | inactive: 7.48%
14 | CCc1cccc(C)c1NC(=O)CCCn1nc(C)c2sc3ccccc3c2c1=O | inactive: -10.7%
15 | Cc1ccccc1Cn1cnc2nc3c(cc2c1=O)CC(C)CC3 (stereo not drawn) | inactive: -5.82%
16 | CCOc1ccc2nc(S(N)(=O)=O)sc2c1 | inactive: -5.08%
17 | COc1ccc(OC)c(NC(=O)CCNS(=O)(=O)c2cccc3nsnc23)c1 | inactive: 16.7%
18 | COc1ccccc1CNc1ccc(-c2nc(-c3ccccn3)no2)cc1[N+](=O)[O-] | inactive: -11.3%
19 | O=C(NCc1ccc(F)cc1)c1c2c(nc3ccccc13)C(=O)N(C1CCCCC1)C2 | inactive: -15.1%
20 | COc1cc(Cl)c(C)cc1NC(=O)Cn1cc(S(=O)(=O)N2CCN(c3ccccc3F)CC2)c2ccccc2c1=O | inactive: -1.16%
21 | Cc1cccc(CCNC(=O)C2CCC(CNS(=O)(=O)c3c(C)cc(C)cc3C)CC2)c1 (stereo not drawn) | inactive: -16.1%

Row | Compound | activation
22 | O=C(Cc1ccc(NC(=O)N2CCCCc3ccccc32)cc1)NCc1ccccc1Br | inactive: -18%
23 | CCc1ccc(NC(=O)CSc2nc3n[nH]c(C)c3c(=N)n2-c2ccc(C)cc2)cc1 | inactive: 43.2%
24 | Cc1cccc(NS(=O)(=O)c2ccc3[nH]c(=O)[nH]c3c2)c1C | inactive: 13.3%
25 | O=C(CCC1N=C2c3ccccc3N=C(SCC(=O)Nc3ccccc3F)N2C1=O)NCc1ccco1 (stereo not drawn) | inactive: -3.31%
26 | N#Cc1ccc(OC(=O)c2cc(-c3ccc(Cl)cc3)on2)cc1 | inactive: 29.7%
27 | Cc1ccc(NC(=O)CN(C)S(=O)(=O)c2ccc3c(c2)n(C)c(=O)c(=O)n3C)c(C)c1 | inactive: -3.55%
28 | N[C@H](C(=O)O)c1ccc(O)cc1 | inactive: 4.94%
29 | CCc1ccc(CN2C(=O)c3ccccc3C2C(=O)NC2CCCCCC2)cc1 (stereo not drawn) | inactive: -18.4%
30 | CC(C)(C)C(=O)Nc1ccc(-c2nc3ccccc3s2)cc1 | inactive: -3.13%
31 | CCOc1ccc(-c2c(C)nn3c(C)c(C(=O)NCc4cccc(OC)c4)cnc23)cc1OCC | inactive: 0.964%
32 | COc1ccc(-n2ncc(C(=O)N3CCN(Cc4ccccc4)CC3)c2C2CCN(C(=O)OC(C)(C)C)CC2)cc1 | inactive: -2.76%
33 | CCOc1cc(C(=O)N(Cc2nc(-c3ccc(C)cc3)no2)C(C)C)cc(OCC)c1OCC | inactive: -14.1%
34 | CCc1cnc2c(c1SCc1c(F)cccc1Cl)c(=O)n(C)c(=O)n2C | inactive: -15%
35 | Cc1oc(-c2ccccc2)nc1Cn1c(SCc2cccc(C(F)(F)F)c2)nc2cccnc21 | inactive: -12.8%
36 | CCc1ccccc1Nc1nn2c(=O)c3ccc(C(=O)NC4CCC(C)CC4)cc3nc2s1 (stereo not drawn) | inactive: -2.5%
37 | CC(=O)Nc1ccc(S(=O)(=O)NCc2ccc3c(c2)CCN3C(C)=O)cc1 | inactive: -2.35%
38 | COc1ccc(CCNC(=O)CCCn2c(=O)c3ccccc3n(CC(=O)Nc3cccc(C)c3)c2=O)cc1OC | inactive: -4.95%
39 | CCOC(=O)c1c(NC(=O)c2ccc(S(=O)(=O)N3CCC(C)CC3)cc2)sc2c1CCN(C(C)C)C2 | active: 78%
40 | COc1ccc(C(=O)Nc2cnc3ccccn3c2=O)cc1 | inactive: -1.06%
41 | Cc1nn(C(=O)COc2ccc(Cl)cc2)c(C)c1Sc1ccccc1 | inactive: 16.1%
42 | CCOC(=O)c1ccc(NC(=O)CC2C(=O)N(c3ccccc3)C(=O)N2Cc2ccc(C)cc2)cc1 (stereo not drawn) | inactive: -9.62%

Row | Compound | activation
43 | C[C@@H]1C[C@H]2[C@@H]3CCC4=CC(=O)C=C[C@]4(C)[C@@]3(Cl)[C@@H](O)C[C@]2(C)[C@@]1(OC(=O)c1ccco1)C(=O)CCl | inactive: 16.4%
44 | CCOc1ccc(NC(=O)c2ccc3c(SCC(=O)O)c4c(nc3c2)CCC4)cc1 | inactive: -2.43%
45 | COc1ccc(OC)c(C2c3c(-c4ccc(Br)cc4)n[nH]c3C(=O)N2c2ccc(Cl)cc2)c1 (stereo not drawn) | inactive: -7.08%
46 | CCOC(=O)[C@H](CCc1ccccc1)N[C@@H](C)C(=O)N1C(=O)N(C)C[C@H]1C(=O)O | inactive: 0.224%
47 | CN1CCCN(C(c2ccccc2)c2ccc(Cl)cc2)CC1 (stereo not drawn) | inactive: 0.968%
48 | CCOc1ccccc1-c1noc(CSc2nnc(-c3ccccc3)n2-c2cccc(C)c2)n1 | inactive: -4.32%
49 | CCOC(=O)c1c(Nc2cccc(C(=O)OC)c2)nnc(-c2ccccc2)c1-c1ccccc1 | inactive: -6.09%
50 | CCOc1ccc(S(=O)(=O)NCC(c2ccco2)S(=O)(=O)c2ccc(C)cc2)cc1 (stereo not drawn) | inactive: -14.7%
51 | COc1ccccc1C(=O)Nc1ccc(NC(=O)c2cccs2)cc1 | inactive: -2.99%
52 | O=C(Nc1cccc(C(F)(F)F)c1)N1CCC(CN2CCCCCC2)CC1 | inactive: -20.5%
53 | CCOc1ccccc1NC(=O)COC(=O)c1cn(CC)c2nc(C)ccc2c1=O | inactive: -2.66%
54 | COc1cc(-c2nc3ccccn3c2Nc2ccccc2C)ccc1O | inactive: 18.2%
55 | CCOC(=O)c1cnc2c(cnn2CC)c1NN=C(C)C | inactive: 12.1% and inactive: -22%
56 | COc1ccccc1NC(=O)N1CCN(c2nnc(C)c3c(C)n(-c4ccc(Cl)cc4)nc23)CC1 | inactive: -6.61%
57 | COc1ccc(CC(=O)NCCc2sc(-c3ccc(Cl)cc3)nc2C)cc1OC | active: 91.5%
58 | CC1CCc2c(sc(NC(=O)Cn3nnc(-c4ccc(C(F)(F)F)cc4)n3)c2C#N)C1 (stereo not drawn) | inactive: 15.8%
59 | COc1ccccc1CNS(=O)(=O)c1ccc(-c2cc(C(F)(F)F)on2)s1 | inactive: -10.6%
60 | CC1CCN(c2cc3c(cc2F)c(=O)c(S(=O)(=O)c2cccc(Cl)c2)cn3Cc2ccccc2)CC1 | inactive: -9.45%
61 | Cn1nc(-c2ccccc2F)c2cc(C(=O)NCc3ccc(Cl)cc3)sc21 | inactive: -5.62%
62 | COc1ccc(NC(=O)C(=O)NCCc2sc(-c3ccc(Cl)cc3)nc2C)cc1 | inactive: 6.78%
63 | COc1ccc(C2=C(C(C)=O)Sc3nnc(-c4ccc(C)cc4)n3N2C(C)=O)cc1OC | inactive: -40.4%

Row | Compound | activation
64 | Clc1ccc(Nc2c(-c3cccs3)nc3ccc(Cl)cn23)cc1 | inactive: -30.4%
65 | COc1ccc(CCNC(=O)Cn2c(=O)cc(C(F)(F)F)c3c(C)nn(C)c32)cc1OC | inactive: 18.7%
66 | CCOC(=O)c1sc2nc(C)n(CC(=O)Nc3cccc(Cl)c3)c(=O)c2c1C | inactive: 14.4%
67 | Cc1ccc(C)c(CSC2=NC(C)(C)Nc3ccccc32)c1 | inactive: -23.6%
68 | COc1ccc(CN(C)S(=O)(=O)c2nnc(NC(=O)C(C)C)s2)cc1OC | inactive: 4.28%
69 | CC(=O)c1cccc(NC(=O)CSc2nnc3ccc(-c4ccc(Cl)cc4)nn23)c1 | inactive: -9.89%
70 | CCc1cccc(NC(=O)c2cc3c(=O)[nH]c4ccccc4c3n2C)c1 | inactive: 49%
71 | Cc1ccc(Cl)cc1NC(=O)c1sc2nc(-c3ccccc3)cn2c1C | inactive: -12.4%
72 | COc1ccccc1NC(=O)C1=C(C)Nc2nc(SCc3ccccc3F)nn2C1c1cccnc1 (stereo not drawn) | inactive: 25.2%
73 | O=C(O)c1ccccc1O | inactive: -7.85%
74 | C=CCc1c(C)nc2nc(SCC(=O)Nc3cccc(Cl)c3)nn2c1C | inactive: 8.68%
75 | CC(C)CN(CC(C)C)c1nc(-c2ccc(Cl)cc2)nc2ccccc12 | inactive: 21.5%
76 | CCOC(=O)c1c(C)oc2nc(C)nc(N(CC(C)C)CC(C)C)c12 | inactive: -16.3%
77 | Cc1c(Cl)cccc1NC(=O)c1ccc2c(c1)nnn2C1CCCC1 | inactive: 4.24%
78 | CO/N=C(/C(=O)N[C@@H]1C(=O)N2C(C(=O)O)=C(Cn3nnc(C)n3)CS[C@H]12)c1csc(N)n1 | inactive: 6.16%
79 | O=C(NCCCN1CCN(c2ccc(F)cc2)CC1)C1COc2ccccc2C1 (stereo not drawn) | inactive: -2.06%
80 | COc1ccc(Cl)cc1NC(=O)Cn1c(=O)n(Cc2nc(C)no2)c(=O)c2ccccc21 | inactive: -14.4%
81 | CCc1ccc(NC(=O)c2ccc3c(=O)n4nc(Nc5ccccc5C)sc4nc3c2)cc1 | inactive: -0.139%
82 | O=C(CCS(=O)(=O)c1ccccc1)N(Cc1cccnc1)c1nc2c(Cl)cccc2s1 | inactive: -26.9%
83 | O=C(Nc1ccccc1C(=O)OCc1cc(=O)n2c3c(sc2n1)CCCC3)c1ccccc1 | inactive: -12.4%
